Test system: Enterovirus D68 (US/KY/14-18953 strain)
Test: CPE inhibition assay
Type: cell-based
Details: for EC50: Enterovirus D, EVD68, RD, read-out: EC50, 50% effective concentration
[1] = Enterovirus D68/US/KY/14-18593, RD cells
[2] = RD cells (Table 3 cell line comparison)

| Structure (SMILES) | SI, selectivity index (CC50 / EC50) [1] | EC50 [µM] | SI, selectivity index (CC50 / EC50) [2] |
| --- | --- | --- | --- |
| CCOC(=O)c1ccc(OCCC2CCN(c3ccc(C)nn3)CC2)cc1 [Pirodavir, pirodavir] | 1.5 | 8.1 ± 3.9 | 3.9 |
| CC(C)S(=O)(=O)n1c(N)nc2ccc(/C(=N/O)c3ccccc3)cc21 [Enviroxime, enviroxime] | 306 | 0.27 ± 0.23 | 240 |

Reference: paper PMC5100981 (Antiviral research, 2016)
